The nature of data set [1]: Serum ALT liver toxicity, CD-1 mice.
In another data set the test system is U87MG brain cancer cells. Put plainly: Clonogenic assay, U87MG brain cancer cells. The class given is cell-based. The protocol: The clonogenic assay was carried out as described in Santi and Lee (2011).^11
The subject of another data set is MDA-MB231. Kind of data set: SRB antiproliferative assay, MDA-MB231. The settings on record: Homo sapiens. The class given is cell-based. The protocol: (§1) Antiproliferative effects were determined by a sulforhodamine B (SRB) based protocol. For a typical screening experiment, 5,000-10,000 cells were inoculated into 100 μl medium per well of a 96-well microtiter plate as described previously. […] Some of the sample wells were fixed with 25 μl of 50% trichloroacetic acid (TCA) as a control of the cell population for each cell line at the time of drug addition (Tz). An aliquot of the frozen stock was thawed and diluted to the desired final maximum test-concentration with complete medium. Two to ten-fold serial dilutions were made to provide a total of seven drug concentrations (and a control [C]). Following addition of drugs, the culture plate was incubated for additional 48 h. Cells were fixed in situ by slowly adding 25 μl of ice-cold 50% (w/v) TCA (final concentration, 10% TCA), and were then incubated for 60 min at 4° C. […] The relative growth rate (%) was calculated for each of the compound concentrations according to the following formula: (Ti−Tz)/(C−Tz)×100 In the formula, time zero (Tz), control growth (C), and OD for different concentration of tested compounds (Ti). […] Values were calculated for each of these parameters if the level of activity was reached. However, if the effect was not reached or was exceeded, the value for that parameter was expressed as greater or less than the maximum or minimum concentration tested. […]

Data set [2] relates to breast cancer cell lines vs matching non-cancer breast epithelial cell lines. Kind of data set: Cancer versus non-cancer selectivity, in vitro breast model. The class given is cell-based, human. As to conditions: in vitro breast (cancer) model. The method, then:
Antiproliferative effects were determined by a sulforhodamine B (SRB) based protocol. For a typical screening experiment, 5,000-10,000 cells were inoculated into 100 μl medium per well of a 96-well microtiter plate as described previously. Briefly, after the inoculation, the microtiter plate was incubated at 37° C., 5% CO2, 95% air and 100% relative humidity for 24 h, prior to addition of experimental drugs. Some of the sample wells were fixed with 25 μl of 50% trichloroacetic acid (TCA) as a control of the cell population for each cell line at the time of drug addition (Tz). An aliquot of the frozen stock was thawed and diluted to the desired final maximum test-concentration with complete medium. […] The cells “stained” with SRB were solubilized with 10 mM trizma base, and the absorbance was read on an automated plate reader at a wavelength of 515-564 nm. The relative growth rate (%) was calculated for each of the compound concentrations according to the following formula: (Ti−Tz)/(C−Tz)×100 In the formula, time zero (Tz), control growth (C), and OD for different concentration of tested compounds (Ti). […] Values were calculated for each of these parameters if the level of activity was reached. However, if the effect was not reached or was exceeded, the value for that parameter was expressed as greater or less than the maximum or minimum concentration tested. […]

Another data set deals with MCF10A. Kind of data set: SRB antiproliferative assay, MCF10A non-cancer breast cells. The class given is cell-based. The settings on record: Homo sapiens, MCF-10A. The method, then: as §1
(In general: Sulforhodamine B stains cellular protein and so reports cell mass.)

Read-outs that look alike come from different tables or passages of the source.

As usually defined, the IC50 is the midpoint of a concentration-inhibition curve. The GI50 is the concentration that inhibits growth by half. High values mean less potent growth inhibition, low ones more potent growth inhibition. In turn, `O=[N+]([O-])c1ccc(S(=O)(=O)N2CCN(c3ccnc4cc(Cl)ccc34)CC2)c([N+](=O)[O-])c1` [Compound 1, 7-Chloro-4-(4-(2,4-dinitrophenylsulfonyl)piperazin-1-yl)quinoline] registered an ALT in data set [1] (1 mg/kg) of 6.40 ± 1.82 IU/L blood, an ALT in data set [1] (5 mg/kg) of 6.81 ± 0.32 IU/L blood, an ALT in data set [1] (20 mg/kg) of 16.19 ± 4.79 IU/L blood and an ALT (ATH490 mice) of 46.63 ± 6.16 U/L. In addition, the IC50 with U87MG brain cancer cells (Homo sapiens, U-87 MG, read-out: IC50 U87MG) was 0.7 ± 0.5 µM; with MDA-MB231 (MDA-MB-231), 3.4 ± 0.1 µM; in the data set with MCF10A, 12.3 ± 1 µM. For the same molecule, the “# Colonies (Experiment #1)” value in the data set with U87MG brain cancer cells (VR-23, 0.5 μM) is given as 0; in the data set with U87MG brain cancer cells (VR-23, 2.5 μM), 0. Moreover, the “# Colonies (Experiment #2)” value with U87MG brain cancer cells (VR-23, 2.5 μM) worked out at 0. In the data set on MDA-MB231 (MDA-MB-231, 48 h), this molecule gave a GI50 of 3.41 ± 0.1 µM. Besides, the “Killing of cancer cells more effectively than matching non-cancer cells” value in data set [2] is listed as 2.6-17.6 fold. In addition, under “ATH490 mice”, the AST is reported as 62.52 ± 8.50 U/L. The “Ratio (AST/ALT)” value (mouse, in vivo) amounted to 1.34.

Source of the values: patent US9975852B2, “Quinoline sulfonyl derivatives and uses thereof” (Health Sciences North Research Institute, priority 2013, dated 2018).
